# Measured values: PubChem BioAssay AID1508624 (National Center for Advancing Translational Sciences (NCATS), 2021)
# Out of some 48,000 compounds screened, about 120 (0.25%) were called active. Another 4% or so got no clear call; they are omitted. The call rests on the fitted dose curve; in most records, active means well fitted activation curve with a large enough effect; inconclusive means small, poorly fitted or top-dose-only effect, or another doubt; inactive means no such curve, though single readings can be large or run the other way. This is one part of the list.
# Test: Primary qHTS for Identification of Small Molecule Activators of Huntingtin-Antisense Promoter Activity; further: nearly all actives have a fitted effect of over 55% in size
# Conditions: HEK293 HTT-AS promoter firefly luciferase reporter (activity 0% = vehicle and -100% = no light), 24 h; series mostly up to 57.5 µM; activity change, positive = activation: at the top concentration
# Procedure, shortened: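 Firefly luciferase signal from promoter-reporter HEK293 cells was scaled between vehicle (0%) and zero RLU (-100%). Compounds were tested at final concentrations of up to 57.5 uM over 24 h at 37 degrees C. PTC124 at 50 uM final served as control inhibitor.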
# Potency means the concentration at half of the fitted maximal effect.
SMILES,"activity change, positive = activation",Potency
O=C(Nc1ccc(F)c(F)c1)c1cc(S(=O)(=O)N2CCc3ccccc32)ccc1F,inactive: -37.7%,
COc1ccc2c(c1)c(CC(=O)Nc1cccc(F)c1C)c(C)n2C(=O)c1ccc(Cl)cc1,inactive: -10.5%,
COc1cccc(-n2ccn(CC(=O)Nc3ccccc3F)c(=O)c2=O)c1,inactive: -9.82%,
COc1ccc(C2=C(C)C(N3CCC(C(=O)NCc4ccco4)CC3)=NS2(=O)=O)cc1,inactive: -11.2%,
Cc1ccc(CNS(=O)(=O)c2cc(C(=O)Nc3ccc(C(C)C)cc3)ccc2F)cc1,inactive: -20.3%,
Cc1ccc(CNC(=O)CSCc2nc(-c3ccc(Cl)cc3)oc2C)cc1,inactive: -26.5%,
CCc1ccccc1NC(=O)Cn1cc(C(=O)c2ccc(Cl)cc2)c(=O)c2ccc(C)nc21,inactive: -9.07%,
O=C(NC1CCCC1)c1cnn(-c2ccc(F)cc2F)c1C1CCNCC1,inactive: -4.89%,
Cc1ccc(S(=O)(=O)N2CCN(Cc3ccccc3)CC2)c(C)c1NS(C)(=O)=O,inactive: -6.76%,
COc1ccc(Cl)cc1NC(=O)CSc1nc2c([nH]c3ccccc32)c(=O)n1-c1ccccc1,inactive: -35.4%,
Cc1cccc(Cn2c(=O)n(CCCCC(=O)NCc3ccc4c(c3)OCO4)c(=O)c3ccccc32)c1,inactive: -4.31%,
O=S(=O)(O)c1cc(I)c(O)c2ncccc12,inactive: -3.38%,
CCSc1nnc2c(n1)OC(c1ccc(OC)cc1OC)N(C(C)=O)c1ccccc1-2 (centres undefined),inactive: -3.28%,
CCC(=O)O[C@]1(C(=O)COC)[C@@H](C)C[C@H]2[C@@H]3CCC4=CC(=O)C=C[C@]4(C)C3(F)[C@@H](O)C[C@@]21C (some centres undefined),inactive: -9.42%,
Cc1ccc(C2=NC(c3ccc(F)cc3)=Nc3ccc(C)cc3N2)cc1,inactive: 2.63%,
COc1ccccc1OCCCCn1c(C2CC(=O)N(c3ccccc3Cl)C2)nc2ccccc21 (centres undefined),inactive: -21.2%,
CCN(CC)CCNC(=O)CN1C(=O)c2cccnc2Oc2ccc(C)cc21,inactive: -4.95%,
COc1ccc(CCNC(=O)Cn2c(=O)n(-c3ccc(OC)c(OC)c3)c(=O)c3ccccc32)cc1OC,inactive: -18.3%,
COc1ccccc1OCC1CNC(=O)O1 (centres undefined),inactive: 3%,
CN(Cc1ccccc1)Cc1c(O)ccc2c(=O)c(-c3ccccc3)c(C(F)(F)F)oc12,inactive: -40.7%,
Cc1ccc(NC(=O)CN2c3ccccc3S(=O)(=O)c3ccccc32)cc1F,inactive: -27.6%,
CCN(C(=O)c1sc2cc(OC)ccc2c1Cl)c1ccccc1,inactive: -32.6%,
O=C(NCc1ccc(F)cc1)C1CCN(S(=O)(=O)c2ccc3c(c2)CCCN3C(=O)C2CCC2)CC1,inactive: -32%,
CN(C)c1ccc(NC(=O)CSc2nc(-c3ccco3)cc(C(F)(F)F)n2)cc1,inactive: -24.2%,

SMILES,"activity change, positive = activation",Potency
O=C(COc1ccccc1Cl)N(Cc1ccco1)Cc1ccco1,inactive: -11.4%,
Cc1ccccc1C(=O)Oc1cc(-c2ccc3c(c2)OCO3)cc(=O)c2c(C)oc(C)c12,inactive: -14.4%,
Cc1ccc(Cl)cc1NC(=O)c1cc2c(=O)n3cccc(C)c3nc2n1C,inactive: 1.81%,
Cc1ccc(S(=O)(=O)c2cnc(SCC(=O)Nc3ccccc3C(F)(F)F)[nH]c2=O)cc1C,inactive: -9.05%,
O=C(NCc1ccc(F)cc1)c1cnc(N2CCOCC2)c2ccccc12,inactive: -13.4%,
Cc1cc(C)cc(NC(=O)C2CCCN(c3cnccn3)C2)c1 (centres undefined),inactive: 5.02%,
CCOc1cc(CNC(=O)c2ccc3c(c2)nc2n3CCCCC2)ccc1OC,inactive: -23.8%,
COc1ccc(-n2c(=O)c3c4c(sc3n(CC(=O)N3CCCCC3C)c2=O)CCC4)c(OC)c1 (centres undefined),inactive: -10.6%,
Cc1ccc(N2CCN(C(=O)c3ccc(Nc4nc5ccccc5n5nnnc45)cc3)CC2)c(C)c1,inactive: 7.59%,
COc1ccccc1N1CCN(S(=O)(=O)c2c(C)sc3ncn(CC(=O)Nc4ccc(C(C)C)cc4)c(=O)c23)CC1,inactive: 8.19%,
CC1CCN(CCCNC(=O)CN2C(=O)CSc3ccc(S(=O)(=O)N4CCC(C)CC4)cc32)CC1,inactive: -0.269%,
Cc1ccc2ncc(S(=O)(=O)c3ccccc3)c(N3CCCCC3C)c2c1 (centres undefined),inactive: -33.4%,
COc1ccc(C2=NC3(CCCCCC3)N(CC(=O)Nc3ccc(C)c(C)c3)C2=O)cc1,inactive: -31.8%,
CCn1c(C)c(C)c2cc(C(=O)NCc3ccc(N(C)C)cc3)ccc21,inactive: -17.5%,
COc1ccc(CNC(=O)CN(c2cc(C(F)(F)F)ccc2Cl)S(C)(=O)=O)cc1,inactive: -16.7%,
O=C1[C@H](CC[C@H](O)c2ccc(F)cc2)[C@@H](c2ccc(O)cc2)N1c1ccc(F)cc1,inactive: -20.8%,
Cc1ccc(C(=O)c2oc3ccccc3c2NC(=O)c2cc(-c3ccc(Cl)cc3)on2)cc1,inactive: -18.1%,
COc1ccc(Cl)cc1NC(=O)Cn1ncc2c3ccccc3n(Cc3ccccc3)c2c1=O,inactive: -24%,
Cc1ccccc1Nc1sc(C(=O)c2ccc(F)cc2)c(N)c1C(=O)NCCc1ccccc1,inactive: 0.85%,
CN(C)c1nc(Cc2ccc(NC(=O)c3ccc4ccccc4c3)cc2)nc(Cl)c1CC(=O)O,inactive: -5.14%,
CC(=O)c1cccc(NC(=O)c2sc(-n3nc(C)c(CCC(C)C)c3C)nc2C)c1,inactive: -3.52%,
Cc1nc(-c2ccc(S(=O)(=O)N3CCN(c4cccc(Cl)c4)CC3)cc2)co1,inactive: -29.8%,
COc1cc(NC(=O)Cn2c(=O)n(CC(=O)NCCc3ccc(OC)c(OC)c3)c(=O)c3sccc32)cc(OC)c1,inactive: -11.8%,
CC(=O)Nc1ccc(S(=O)(=O)NCC2CCC(C(=O)NCc3ccccc3Cl)CC2)cc1 (centres undefined),inactive: 5.32%,

SMILES,"activity change, positive = activation",Potency
CSc1ccc(CNC(=O)Cc2csc3ccccc23)cc1,inactive: 14.5%,
CC(=O)NCCNc1nc2c(-c3cccc(C)c3)nnn2c2ccc(Cl)cc12,inactive: 8.46%,
COc1ccc(N2CC(NC(=O)Cc3cccs3)CC2=O)cc1 (centres undefined),inactive: -4.35%,
COc1ccc(-n2nnnc2C2CCN(S(=O)(=O)c3ccc(F)cc3Cl)CC2)cc1,inactive: -40.9%,
COc1cccc(Nc2sc(C(=O)c3ccc4c(c3)OCO4)c(N)c2S(=O)(=O)c2ccccc2)c1,inactive: -26.1%,
Cc1cc(C)cc(NC(=O)CSc2nc3c([nH]c4ccccc43)c(=O)n2-c2ccc(F)cc2)c1,inactive: -27.2%,
CNC(=O)C(=O)NCC(c1ccc2c(c1)OCO2)N1CCOCC1 (centres undefined),inactive: -5.62%,
CCOc1ccc(-c2cc(NC(=O)c3cccc(Cl)c3)c(C(=O)OC)s2)cc1,inactive: -2.94%,
CC1=C(C(=O)Nc2ccccc2)C(c2ccc(C)cc2)n2nc(SCc3ccccc3C)nc2N1 (centres undefined),inactive: 0.412%,
CCCOc1ccc(C(=O)Nc2nonc2-c2ccc(OCC)cc2)cc1,inactive: -5.58%,
COc1ccc(CNC(=O)C2=C(C)C(=O)OC23CCCCC3)cc1OC,inactive: -4.75%,
O=C(c1ccc(F)cc1F)N1CCC(c2nc(-c3ccc(S(=O)(=O)N4CCCC4)cc3)no2)CC1,inactive: 0.0687%,
Cc1ccc(OCCCCn2cnc3ccccc32)cc1,inactive: -13.6%,
CCN(CC)S(=O)(=O)c1ccc2c(c1)nc(CN(C)C(=O)Nc1ccc(F)cc1)n2C,inactive: -6.59%,
COc1cc(Cl)c(C)cc1NC(=O)CCc1c(C)nc2c3cccnc3nn2c1C,inactive: -12.4%,
CS(=O)(=O)c1ccccc1-c1nnc(NC(=O)c2ccc3c(c2)OCCO3)o1,inactive: 1.37%,
COc1ccc(CNC(=O)CSc2n[nH]c(-c3ccc(F)cc3)n2)cc1,inactive: -14.4%,
O=C(Nc1nc2n(n1)C(c1ccccc1)C=C(c1ccccc1)N2)c1ccccc1 (centres undefined),inactive: -34.9%,
COc1ccc(NC(=O)c2nnn(CC(=O)Nc3c(C)cc(C)cc3C)c2N)cc1OC,inactive: 3.44%,
Cc1ccc(C)c(CN2C(=O)c3ccccc3S(=O)(=O)c3ccc(C(=O)Nc4cc(F)ccc4F)cc32)c1,inactive: -28.2%,
COc1ccc(CNC(=O)CN(c2ccc(C)cc2)S(=O)(=O)c2c(C)noc2C)cc1,inactive: -16.3%,
COc1ccc(CNC(=O)C(CCSC)NS(=O)(=O)c2ccc3c(c2)oc(=O)n3C)cc1 (centres undefined),inactive: -0.359%,
Fc1ccc(Nc2nc(SCc3cccc(Cl)c3)nc3ccccc23)cc1,inactive: -38.2%,
CSc1nc(-c2ccccc2Cl)nc2c1Cc1c(CO)cnc(C)c1O2,inactive: -35.1%,

SMILES,"activity change, positive = activation",Potency
COc1ccc(CNC(=O)Cn2c(=O)c3cccn3c3ccccc32)cc1,inactive: -23.3%,
CCc1nnc2c(N3CCN(c4cccc(C(F)(F)F)c4)CC3)nc3ccccc3n12,inactive: -11.2%,
COc1cccc(CNc2ncnc3onc(C)c23)c1,inactive: -58%,
O=C(Cn1c(=O)n(Cc2ccco2)c(=O)c2oc3ccccc3c21)Nc1ccc(F)c(Cl)c1,inactive: -22.2%,
COc1ccc(N(CC(=O)N2CCc3ccccc3C2)S(=O)(=O)c2ccc(C)cc2)cc1Cl,inactive: -21.7%,
CN1CCN(CCCNC(=O)c2cnn(-c3ccc(F)cc3)c2-n2cccc2)CC1,inactive: -12.9%,
c1ccc(-c2cc3ncc4c(n3n2)-c2ccccc2OC4)cc1,,active: 1580 nM
COc1ccc(C2=C(C(C)=O)Sc3nnc(-c4ccc(Cl)cc4)n3N2C(C)=O)cc1OC,inactive: -19.7%,
O=C(Nc1c(C(=O)N2CCN(c3ccccc3F)CC2)oc2ccccc12)c1ccco1,inactive: -26.8%,
CCOC(=O)c1ccc(NC(=O)c2cn(-c3ccccc3)nc2-c2ccc(C)cc2)cc1,inactive: -0.983%,
CCCc1ccc(S(=O)(=O)N2CCC(c3nnnn3-c3ccc(OC)cc3)CC2)cc1,inactive: -12.8%,
Cc1oc2cc3oc(=O)c(CC(=O)N4CCCCC4)c(C)c3cc2c1C,inactive: -4.31%,
CCOc1cc(C#N)c(NC(=O)c2ccc(OC)c(S(=O)(=O)N3CCN(c4ccccc4)CC3)c2)cc1OCC,inactive: -8.16%,
CN1CCOC(c2ccccc2)c2ccccc2C1 (centres undefined),inactive: -5.39%,
CCCOc1ccc(CNC(=O)c2oc3ccc4c(c3c2C)C(=O)CC(C)(CC)O4)cc1 (centres undefined),inactive: -25.5%,
CC(NC(=O)C1CCN(S(=O)(=O)c2ccc(F)cc2)CC1)c1ccccc1 (centres undefined),inactive: -26.5%,
CN1CCC(=C2c3ccccc3CCc3sccc32)CC1,inactive,
COc1cccc(C(=O)Nc2nc3ccc(S(=O)(=O)N4CCCC4)cc3s2)c1,inactive: -20.7%,
O=C(Nc1ccc(Br)cc1)c1cc(-c2cccs2)nc2ccccc12,inactive: -4.18%,
Cc1ccc(NS(=O)(=O)c2ccc(-c3cnc(C4CC4)o3)cc2)cc1N(C)C,inactive: -39.3%,
CC(C)Oc1ccc(C(=O)N2CCC(c3nc4ccccc4o3)CC2)cc1,inactive: -19.1%,
CC(C)c1ccc(NC(=O)CSC2=Nc3ccccc3C3=NC(CC(=O)NCc4cccs4)C(=O)N23)cc1 (centres undefined),inactive: 6.16%,
